# ChEMBL document CHEMBL4888484, “Replenishing the malaria drug discovery pipeline: Screening and hit evaluation of the MMV Hit Generation Library 1 (HGL1) against asexual blood stage Plasmodium falciparum ,using a nano luciferase reporter read-out” (2022)
# About 540 (0.36%) of roughly 150,000 compounds showed an effect of 50% or more. The list shows a part of the results.
# Test system: Plasmodium falciparum
# Assay: Primary screen in NF54 nanoGlo assay, in single point, at 2uM, 72h; a lower Z score goes with more inhibition
# Format: functional, Erythrocyte
# Conditions: timepoint 72 hour
Compound,% Inhibition [%],Z score
O=C(c1nc(N2CCOCC2)ncc1Cl)N1CCCCCC1,-13,1.36
Cc1nc(N)ncc1C(=O)N1CCN(Cc2ccc3c(c2)OCO3)C(=O)C1,-5,0.99
Cc1cnn([C@H]2CCN(C(=O)Nc3ccc(-c4cnn(C)c4)c(C)n3)C2)c1,-2,0.45
COc1ccccc1-n1nc(Cc2ccccc2)n(CC(=O)N[C@@H](C)C2CC2)c1=O,-9,1.02
Cc1c(Cl)cccc1NC(=O)[C@H](C)NC1CCN(C)CC1,4,-0.65
O=c1c2nc(-c3ccc4c(c3)OCO4)cn2ccn1-c1cccc(Cl)c1,-17,2.2
CC[C@H](NCc1nncn1CC)c1ccc(F)cc1F,-9,1.2
O=C(c1cccc(F)c1)N1CCN(Cc2cccc(Oc3ccccc3)c2)CC1,-10,1.67
COc1ccc(-c2nnsc2C(=O)NCC2CC3C=CC2C3)cc1 (stereo unspecified),-8,1.52
N#C[C@]1(F)CCN(c2nc(-c3ccnc(C(F)(F)F)c3)cs2)C1,-16,1.85
COc1ccc(CC(=O)Nc2ccc3ncnc(N4CCCCC4)c3c2)c(Cl)c1,-19,1.83
CCn1cc(C(=O)N2CCO[C@@H](Cc3nc(COC)no3)C2)cn1,-9,1.76
CC1CCN(C(=O)c2cc3occc3c(Nc3ccc(F)cc3)n2)CC1,-20,2.05
O=C(NCCc1cccc(C(F)(F)F)n1)c1ccnc2nn[nH]c12,-3,0.42
COCC1(C(=O)N2CCn3cccc3[C@H]2c2ccccn2)CCC1,-8,1.2
C[C@H]1CCOCCN1C(=O)c1ncnc2sccc12,-3,0.52
Cc1cc(=O)c(C(=O)N2CCC[C@H](C)C2)c(Cc2cccc(F)c2)n1CCCN1CCOCC1,-5,0.97
CCc1ncc(CNC2(CNC(=O)OC(C)(C)C)CCCC2)cn1,-12,1.59
O=C(CCC(=O)Nc1ccc(OCc2ccccc2)cc1)NCc1ccc2c(c1)OCO2,-1,0.13
CC#CC(=O)N[C@@H](C)CCC1CCCC1,0,-0.05
O=C(N[C@@H](Cc1ccccc1)c1ccccc1F)N1CCN(C(=O)N2CCCC2)CC1,-5,0.74
Cc1cc(CC(=O)NCCc2ccc(C)o2)on1,-6,1.28
Cn1ccnc1CN1CCCC12CCN(c1nc3ccccc3s1)CC2,-12,1.14
